# In all, about 310,000 compounds went through this assay and about 2,200 (0.71%) showed an effect of 50% or more. The effect is printed as a negative number. The list shows a part of the results.
# Target: human ether-à-go-go-related gene (hERG) potassium channel (human, UniProt Q12809)
# Assay: primary screen, population patch clamp on CHO cells stably expressing hERG
# Chain of human ether-à-go-go-related gene (hERG) potassium channel (Q12809 whole entry, looked up): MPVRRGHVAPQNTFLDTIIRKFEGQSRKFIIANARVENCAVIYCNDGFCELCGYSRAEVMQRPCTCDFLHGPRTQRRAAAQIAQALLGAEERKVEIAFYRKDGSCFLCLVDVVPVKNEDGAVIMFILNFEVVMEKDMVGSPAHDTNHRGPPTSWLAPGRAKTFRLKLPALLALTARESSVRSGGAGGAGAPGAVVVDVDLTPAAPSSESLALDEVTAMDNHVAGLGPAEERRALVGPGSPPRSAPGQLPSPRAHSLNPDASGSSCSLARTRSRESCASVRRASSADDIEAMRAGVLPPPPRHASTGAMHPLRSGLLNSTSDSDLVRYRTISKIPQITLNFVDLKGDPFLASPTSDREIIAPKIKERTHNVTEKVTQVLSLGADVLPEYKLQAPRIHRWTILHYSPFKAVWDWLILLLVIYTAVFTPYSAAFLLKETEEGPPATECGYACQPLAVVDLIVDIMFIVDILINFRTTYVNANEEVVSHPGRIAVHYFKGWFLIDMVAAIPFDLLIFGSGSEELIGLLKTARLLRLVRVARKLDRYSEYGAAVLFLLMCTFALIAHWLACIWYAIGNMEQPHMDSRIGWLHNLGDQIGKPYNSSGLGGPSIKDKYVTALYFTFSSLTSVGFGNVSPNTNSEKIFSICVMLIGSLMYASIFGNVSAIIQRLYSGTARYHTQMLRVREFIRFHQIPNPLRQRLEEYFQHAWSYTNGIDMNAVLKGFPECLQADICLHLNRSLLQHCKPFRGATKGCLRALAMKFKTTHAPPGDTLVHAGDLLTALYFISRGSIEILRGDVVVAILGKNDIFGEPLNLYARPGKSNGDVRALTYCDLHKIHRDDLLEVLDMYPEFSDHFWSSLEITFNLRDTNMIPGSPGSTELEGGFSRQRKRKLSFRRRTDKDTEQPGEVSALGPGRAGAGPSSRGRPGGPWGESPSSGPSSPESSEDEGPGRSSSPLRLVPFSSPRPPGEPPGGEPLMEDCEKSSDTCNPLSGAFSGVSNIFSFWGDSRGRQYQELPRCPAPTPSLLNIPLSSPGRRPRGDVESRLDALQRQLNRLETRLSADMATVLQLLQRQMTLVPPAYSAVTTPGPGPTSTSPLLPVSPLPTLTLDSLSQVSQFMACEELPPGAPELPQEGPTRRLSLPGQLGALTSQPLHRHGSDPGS
row,Structure (SMILES),"hERG current change (%, negative = inhibition) at 1uM [%]"
1,CCCCCn1c(CCC(=O)Oc2ccccc2OC)nc2c1c(=O)[nH]c(=O)n2CCCC,2.3
2,O=C(N1CCCCCC1)N1CCN(S(=O)(=O)c2ccccc2)CC1,-6.18
3,CC(C)CC(=O)Nc1ccc(C(=O)CN2C(=O)NC3(CCOc4ccccc43)C2=O)cc1 (stereo not shown),11.6
4,N#C/C(C(=O)Oc1ccccc1)=C1\C=Cc2ccccc2N1,10.5
5,Cc1ccc2[nH]c(=O)c(CN(Cc3nnnn3C3CCCC3)C3CCCCC3)cc2c1,6.38
6,CCn1cc2nc(SCC(=O)Nc3ccc(OC)cc3OC)n(Cc3ccc(OC)cc3)c(=O)c2n1,7.03
7,C=CCOc1c2ccc(C(=O)NCc3ccccc3OC)cc2nn1C,10.4
8,CCOc1ccc(NC(=O)CCCc2cc(-c3ccc(OCC)cc3)on2)cc1,14.6
9,CC(=O)c1cccc(NC(=O)C(OC(=O)c2cccs2)c2ccccc2)c1 (stereo not shown),2.37
10,Cc1ccc2nc(SCC(=O)N3CCN(C(=O)c4ccco4)CC3)[nH]c2c1,-10.5
11,COc1ccc(OC)c(C(c2nnnn2Cc2ccccc2)N2CCN(C)CC2)c1.Cl (stereo not shown),14.2
12,CCCCSc1nc(C(=O)O)cc(=O)[nH]1,-0.661
13,COC(=O)c1cc(C(=O)OC)n(Cc2ccc(F)cc2)c1C,9.25
14,COc1cccc(C2NC(=O)NC(C)=C2C(=O)OCCSC)c1OC (stereo not shown),6.85
15,CC1CCc2c(sc(NC(=O)c3ccc(Cn4cc([N+](=O)[O-])cn4)o3)c2C#N)C1 (stereo not shown),10.1
16,CCCCc1nc2n[nH]c(N)c2c2c1CCCC2,6.58
17,CN1CCN(C(=O)C23CC4CC(C)(CC(C)(C4)C2)C3)CC1.Cl,13.4
18,CC1(C)CC(=O)C/C(=N\NC(=O)C2C3CCCCC32)C1 (stereo not shown),20.2
19,COCCCNC(=O)c1ccc(-n2nc(C(F)(F)F)cc2-c2cccs2)cc1,2.67
20,CN(C)N1C(N)=C(C#N)C(c2cccnc2)C2=C1CC(C)(C)CC2=O (stereo not shown),6.15
21,Cc1ccc(-c2nc(C(=O)NCCCN(C)C)cc3c2[nH]c2ccccc23)cc1,1.93
22,O=C(Cc1ccc(-n2c(=O)c3ccccc3n(CC(=O)Nc3ccc(F)cc3F)c2=O)cc1)NCc1ccco1,17.1
23,Nc1nnc(SCC(=O)Nc2ccccc2N2CCOCC2)s1,9.59
24,Cc1ccc(OCCC(=O)Nc2ccc(S(=O)(=O)Nc3nccs3)cc2)cc1,16.5
25,COc1ccccc1CCC(=O)Nc1ccc2c(c1)CN(Cc1ccc(CO)o1)CC2,14.7
26,CC1(C)Cc2c(C#N)c(N3CCN(C(=O)c4ccco4)CC3)nc(Cc3ccccc3)c2CO1,-0.232
27,CC(=O)N=Nc1[nH]c(N)c2ccccc12,14.4
28,CCCS(=O)(=O)N1CCN=C1SCc1ccc(C)cc1,2.13

row,Structure (SMILES),"hERG current change (%, negative = inhibition) at 1uM [%]"
1,CCOc1ccc(-n2c(C)c(C(=O)O)c3cc(OC)ccc32)cc1,19.6
2,Cc1cc(NC(=O)COc2ccccc2)ccc1Cl,6.17
3,CCOc1ccccc1Nc1ncnc2ccccc12.Cl,-9.83
4,O=c1[nH]c(SCc2ccc(Cl)cc2)nc2ccccc12,10.7
5,CCOC(=O)c1ccc(NC(=O)CSc2n[nH]c(-c3ccncc3)n2)cc1,8.2
6,NC(=O)C1CC12c1ccccc1-c1ccccc12 (stereo not shown),11.1
7,Cc1ccc(NS(=O)(=O)c2cc(C(=O)N3CCN(C)CC3)ccc2C)cc1,-5.33
8,CN1CCC(N(C)C(=S)Nc2ccc(SC(F)F)cc2)CC1,-34.3
9,O=C(c1cc(COc2c(F)cccc2F)on1)N1CCN(C2CCCCC2)C(=O)C1,9.96
10,NC[C@H]1O[C@H](O[C@H]2[C@H](O)[C@@H](O[C@H]3O[C@H](CO)[C@@H](O)[C@H](N)[C@H]3O)[C@H](N)C[C@@H]2N)[C@H](N)C[C@@H]1O.O=S(=O)(O)O,8.63
11,Cc1cc(C)cc(OCCNS(=O)(=O)c2cccs2)c1,36.6
12,CSc1cccc(NC(=O)c2cc(S(=O)(=O)N3CCc4ccccc43)cn2C)c1,-1.68
13,COc1ccc(C(=O)NNC(=S)NC2CCCCC2)cc1OC,14.8
14,O=C(CSCc1c(Cl)cccc1Cl)NCc1ccco1,5.36
15,COc1ccc2c(C)cc(=O)[nH]c2c1,-1.82
16,C=CCn1c(=O)[nH]c2cc(C(=O)N3CC=C(c4ccccc4)CC3)ccc2c1=O,14.2
17,Cc1ccccc1C(=O)N1CCN(c2ccc(NC(=O)c3ccco3)cc2Cl)CC1,-3.61
18,COCCCn1c(C)nnc1SCC(=O)Nc1cccc(C)c1,9.29
19,CC(NC(=O)COC(=O)C1(C)CC1(Cl)Cl)c1ccccc1 (stereo not shown),-1.29
20,C=CCN(c1ccccc1Cl)S(=O)(=O)c1cccc(C(=O)OCC(=O)N(C)C2CCS(=O)(=O)C2)c1 (stereo not shown),9.58
21,CCCCCCn1c(=O)c(-c2ccccc2)c(O)c2ccccc21,-5.95
22,Cc1ccc(-n2nc3c(=O)n(CCCC(=O)NCCc4ccccc4C)nc(C)c3c2C)cc1,9.46
23,CCC(=O)Nc1cccc(-c2ccc(N3CCC(C)CC3)nn2)c1,12.1
24,CC1CN(C(=O)c2nn(C)cc2[N+](=O)[O-])CC(C)O1 (stereo not shown),9.15
25,Oc1ccc(/C=N/N=C/c2ccc(O)c(O)c2)cc1O,14.2
26,COc1cc(NC(=O)CCCl)cc(-n2cnnn2)c1,5.72
27,Cc1noc(C)c1CCC(=O)N1CCCC(CCC(=O)NCc2ccc(F)c(F)c2)C1 (stereo not shown),-11.7
